From the supplement of paper PMC3334620
In all, about 33,000 sequences were measured (“E-score (-0.5 to 0.5)”: median about -0.035, highest 2% from about 0.34 on). The list shows a part of the results.

Target: T1, Mot3 (UniProt P54785)
T1 sequence: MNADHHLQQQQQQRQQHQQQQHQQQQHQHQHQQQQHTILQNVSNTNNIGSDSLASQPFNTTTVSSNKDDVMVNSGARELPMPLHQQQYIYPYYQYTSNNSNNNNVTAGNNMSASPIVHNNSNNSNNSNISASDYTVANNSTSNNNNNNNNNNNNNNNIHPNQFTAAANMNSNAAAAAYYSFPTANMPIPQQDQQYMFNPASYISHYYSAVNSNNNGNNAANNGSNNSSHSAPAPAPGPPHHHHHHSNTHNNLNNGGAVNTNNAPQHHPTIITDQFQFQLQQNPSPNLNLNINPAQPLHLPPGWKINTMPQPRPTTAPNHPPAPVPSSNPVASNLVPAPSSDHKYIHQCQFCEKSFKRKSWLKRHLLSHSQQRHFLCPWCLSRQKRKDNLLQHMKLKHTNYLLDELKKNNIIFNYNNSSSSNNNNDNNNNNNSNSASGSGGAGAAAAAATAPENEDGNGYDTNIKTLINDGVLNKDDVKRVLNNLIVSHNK
Test: PBM E-score (8-mer binding enrichment) (E-score (-0.5 to 0.5)); higher = stronger / more preferred TF binding; most listed sequences are background and not binding sites
Conditions: protein concentration: 200 nM; construct: GST-full length
In short: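 Each ungapped eight-base word and its reverse complement, pooled, received an E-score from the Universal PBM Analysis Suite. Underlying scans, normalised with masliner, recorded fluorescent anti-GST bound to GST-tagged yeast transcription factors. These were applied at about 100-200 nM to universal all-10-mer Agilent arrays double-stranded by primer extension.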

Row | Sequence | PBM E-score
1 | CAGCAGAG | -0.293
2 | AGATATGC | 0.0227
3 | CTATTTTC | -0.041
4 | ATGACGGC | -0.362
5 | CGAGGAAA | -0.044
6 | CTGCACCC | -0.185
7 | GCGCTGAC | -0.0458
8 | CTAGGTAC | 0.26
9 | ACCGAGCT | 0.0142
10 | GGATGCCC | -0.258
11 | CATATACA | 0.26
12 | ATATTCCA | 0.0459
13 | CATCCCAG | -0.0916
14 | ATGGTCAA | 0.0423
15 | CATAGTGA | 0.0256
16 | CGCAGACA | -0.002
17 | GGCATCAC | -0.0141
18 | GGTATCAC | -0.248
19 | AGCCTAGG | -0.235
20 | ACCTTAAA | -0.092
21 | AATTCGGT | -0.0054
22 | AGGTTTTC | 0.113
23 | ACAGATAC | 0.0685
24 | GTACAGCA | 0.0112
25 | ATACACAT | 0.3

Row | Sequence | PBM E-score
26 | CTGTATAC | 0.156
27 | GTCAGTCA | 0.0634
28 | GTCACCTA | -0.0234
29 | ACGATTGC | 0.268
30 | ACTTAATC | -0.0144
31 | CCTATACA | 0.268
32 | CACGGTGC | -0.0219
33 | CCATCGCC | -0.161
34 | ACGACCCG | -0.104
35 | ACGGGGGA | -0.0161
36 | ATAAAAAG | 0.132
37 | GGGAATAA | -0.209
38 | AAAGCGAC | -0.0586
39 | CCGCTATC | -0.313
40 | CTCTGCAC | -0.2
41 | AAAGCACT | -0.216
42 | AATACGCC | 0.0729
43 | GGATTTGA | -0.11
44 | CGTCCCCA | -0.252
45 | CTGGTGAA | 0.112
46 | CTACGTAC | 0.195
47 | ACGGAACC | 0.0959
48 | GAATAATA | 0.105
49 | ACAAGGAT | 0.207
50 | GACGGTTA | -0.0411

Row | Sequence | PBM E-score
51 | ATCGGTCA | -0.298
52 | CATTATCG | -0.0496
53 | AGCTGAAG | -0.0742
54 | AGCACCGC | -0.299
55 | AACCATAA | 0.0898
56 | ACCGCACC | -0.21
57 | TAGAAGCA | 0.0947
58 | AGGTGTTG | 0.192
59 | TCATTCAA | 0.055
60 | GTGTCGGA | -0.0038
61 | GGAGTGAA | -0.113
62 | CAGCCTTA | -0.128
63 | AAGTGGAA | 0.0185
64 | CAATAATA | 0.103
65 | CCCAAACC | -0.142
66 | ACTGGGCC | -0.13
67 | AACGGTGC | 0.154
68 | CGAACCTC | -0.171
69 | AGAGTCTA | -0.081
70 | CGCACACG | -0.159
71 | GGGACCTA | -0.263
72 | GTCAAGAA | 0.174
73 | ATTGTGAC | -0.046
74 | ATTTAAAA | 0.039
75 | GTACGCAA | 0.218

Row | Sequence | PBM E-score
76 | GCAGTTTA | -0.0464
77 | CTGAGGGA | -0.322
78 | AATCAAGG | 0.0589
79 | CTAGCAGA | -0.217
80 | CCCAAGTA | -0.0226
81 | CCCGGCAC | -0.333
82 | CAAGCGCG | -0.182
83 | AGAAAGGG | 0.0398
84 | GGCTAATA | -0.151
85 | ATCGAGAA | 0.0657
86 | AAGCAGTA | -0.163
87 | CACCTAAA | 0.088
88 | CATGGTCA | 0.0925
89 | GCGTAGCC | 0.0806
90 | ACAAGCTG | 0.0158
91 | CGAGATCC | -0.301
92 | AGGAGGTG | -0.053
93 | CACACGCC | 0.0576
94 | CTAATTCC | -0.0244
95 | AGGCGCAT | 0.191
96 | AGTCACGG | 0.179
97 | CGCTTTGC | -0.0483
98 | GTCTTCTA | -0.0971
99 | GACCCGAA | -0.128
100 | CCTAAGGC | 0.133

Row | Sequence | PBM E-score
101 | GATAGGCC | 0.0586
102 | GATTACCC | 0.0191
103 | CAAAATCG | -0.0102
104 | ACGTCCCG | -0.117
105 | ACCGCCAT | -0.159
106 | CTTCGCCA | -0.0986
107 | AAGCCCAC | -0.157
108 | GCGAGACA | -0.0299
109 | CAATCATC | -0.0597
110 | AGTTCTGG | -0.282
111 | CAATCATG | 0.0726
112 | ACCATGCA | -0.0491
113 | GATTCGCA | -0.0493
114 | CTGGCCGA | -0.335
115 | GTACTGAA | -0.00155
116 | ACAATGGC | 0.00468
117 | CGGATCCC | -0.381
118 | AGACTTGC | -0.005
119 | CTGGCAGC | -0.18
120 | AGCATTTA | -0.102
121 | ACGCGTCC | 0.0149
122 | AACGTGGC | 0.0798
123 | AGTATTAC | 0.21
124 | ACTCGGGA | -0.272
125 | CGATCCGC | -0.148

Row | Sequence | PBM E-score
126 | GCGTGACC | -0.0907
127 | GAATATTC | -0.0559
128 | CACTAACG | -0.0319
129 | CCTTCCTC | -0.124
130 | GACCTGCC | -0.205
131 | CGGTAAAA | 0.0898
132 | CAACCGGA | -0.0548
133 | CAATCTAG | 0.00579
134 | AAGCCCAA | 0.0352
135 | CACAGAGA | 0.0161
136 | TGAGCTCA | 0.129
137 | AGACTGGA | -0.117
138 | AATGTCCG | -0.141
139 | CATCAACA | 0.236
140 | CACATGTG | 0.194
141 | AGAAATGG | -0.118
142 | ATGATGTC | -0.013
143 | ACTGAAAT | -0.0376
144 | CCCTCAGG | -0.152
145 | AGTTACTG | -0.102
146 | CAGGAGTC | -0.238
147 | CACAAGGC | 0.2
148 | CCTGGCTA | -0.184
149 | ATAAGGCA | 0.46
150 | GAGCGTGA | 0.0127

Row | Sequence | PBM E-score
151 | CTCGTGGA | -0.234
152 | GGGAGCTA | -0.105
153 | CGTACGCC | -0.0491
154 | ATGAGTTG | -0.0577
155 | ATGCGTGC | 0.25
156 | CTGTCACA | -0.0045
157 | AAAAATTA | 0.172
158 | GAAAGCCA | -0.0213
159 | ATGAAGAC | -0.24
160 | AACTTTAA | 0.0958
161 | TAGCTGGA | -0.118
162 | AAGGATCA | 0.0089
163 | GAATGTCC | -0.108
164 | GTTGTAGA | 0.21
165 | CGTTGCTC | -0.0421
166 | ATCCCGCG | -0.237
167 | CGAATCGA | 0.121
168 | ACTAGGCG | 0.168
169 | TGCAAACA | 0.146
170 | TGCGATAA | 0.0568
171 | CGTACACA | 0.245
172 | ATGTCACC | -0.0308
